SMILES strings stand for the structures. The campaign covered roughly 150,000 compounds. About 540 (0.36%) showed an effect of 50% or more. Some of the results follow.

Usually % Inhibition stands for the relative decrease from the control value, in per cent.

For this test, the system named is Plasmodium falciparum. In words: Primary screen in NF54 nanoGlo assay, in single point, at 2uM, 72h; a lower Z score goes with more inhibition. It counts as functional, Erythrocyte. As to conditions: timepoint 72 hour.
Turning to `CN1CCCC(CNC(=O)CCC2CCCOC2)C1c1ccccc1` (stereo unspecified), the “% Inhibition” value is -1% and the Z score is 0.12.

With `COc1ccc([C@@H]2Cn3cc(C(=O)NCCCN4CCOCC4)nc3C(=O)N2)cc1`, the “% Inhibition” value is listed as -11% and the Z score stood at 1.52.

`C[C@H]1CCCCN1CCCNC(=O)CCc1nnc(C(=O)Nc2ccc(F)cc2)s1`: the “% Inhibition” value was -16% and the Z score worked out at 3.06.

For `CC(C)n1c(=O)[nH]c2ccc(C(=O)N3CCC34CCN(C)CC4)cc21`, the “% Inhibition” value is -11% and the Z score stood at 1.5.

For `O=C(NCc1ccc[nH]c1=O)c1cccc2c1CCCN2`, the “% Inhibition” value is given as 1% and the Z score is -0.27.

With `COC[C@@H]1CCC[C@@H]1NC(=O)Nc1ccc(F)cc1Cl`, the “% Inhibition” value is 5% and the Z score is -0.96.

For the compound `CCC(CC)n1ccc(Cn2cc(CN3CCOC[C@H]3C)nn2)n1`, the “% Inhibition” value was -11% and the Z score is 1.74.

Turning to `O=S(=O)(Nc1ncn(-c2ccccc2)n1)c1ccnn1C1CCC1`, the “% Inhibition” value was -10% and the Z score stood at 1.64.

Turning to `Cc1ccc2nc(Cn3cc(-c4nc(C)n5ccccc45)nn3)cn2c1`, the “% Inhibition” value is -19% and the Z score is 3.64.

For `N#Cc1ccc(NCCCC(F)(F)F)cc1`, the “% Inhibition” value is 0% and the Z score is -0.02.

Turning to `COc1cccc(C(=O)N2CCNC[C@H]2C(=O)N2CCN(C)CC2)c1C`, the “% Inhibition” value was -5% and the Z score amounted to 0.73.

Regarding `Cc1cc(NC(=O)Cn2ccc(-c3scnc3C)n2)n(C2CCCCC2)n1`, the “% Inhibition” value is listed as -1% and the Z score is 0.09.

Turning to `C[C@H]1CCCN(C(=O)CNc2cccc3ccccc23)C1`, the “% Inhibition” value is -5% and the Z score was found to be 0.68.

With `O=C(c1cccnc1)N1C[C@@H]2C[C@@H](O)CN2C2(CN(Cc3ccc(F)cc3)C2)C1`, the “% Inhibition” value is -1% and the Z score is reported as 0.06.

As for `c1cc(N2CCCCC2)ncc1-c1nc2c([nH]1)CCNC2`, the “% Inhibition” value was found to be 5% and the Z score was -0.94.

In the case of `CCc1cc2c(N3CCCN(CC(N)=O)CC3)ncnc2s1`, the “% Inhibition” value is listed as 1% and the Z score was -0.09.

On to `Cc1cccc2c1OCC[C@@H]2NC(=O)Nc1nnc(-c2ccsc2)s1`, for which the “% Inhibition” value was found to be 0% and the Z score worked out at 0.03.

In the case of `CCNC(=O)c1ccc(COc2ccc3c(c2)[C@H](c2ccc(F)cc2)N(C(=O)C2CCCC2)CC3)o1`, the “% Inhibition” value is recorded as 9% and the Z score was -0.99.

On to `COc1ccc(C)cc1NC(=O)CNC(=O)COC(=O)COc1ccc2ccccc2c1`, for which the “% Inhibition” value is reported as -4% and the Z score is on record as 0.62.

For `Cc1c(-c2ccc(Cl)cc2)nnn1C[C@@H](O)Cn1cccn1`, the “% Inhibition” value is reported as -15% and the Z score came to 2.

With `CCC(C)n1nc(C(=O)NCC2CCCOC2C(C)C)cc1C` (stereo unspecified), the “% Inhibition” value was 3% and the Z score is recorded as -0.36.

For the compound `OC[C@H]1CN(c2ncc(Cl)cc2C(F)(F)F)C[C@H]1CN1CCCCC1`, the “% Inhibition” value is recorded as -9% and the Z score came to 0.85.

`CCc1ccc(CCCN(C)Cc2cccnc2)cc1`: the “% Inhibition” value is -9% and the Z score is 1.18.

Consider `CC1CCOC1C(=O)Nc1cnns1` (stereo unspecified), for which the “% Inhibition” value is -5% and the Z score was 0.94.

`COC[C@H]1CCCN(c2nc(C)cc(C#N)n2)CC1`: the “% Inhibition” value stood at 24% and the Z score is reported as -2.75.

Turning to `CCn1cc(C(=O)C(=O)N(C[C@H]2CCCO2)C2CCC(C)CC2)cn1` (stereo partly specified), the “% Inhibition” value is -7% and the Z score is listed as 0.6.

As for `O=C([C@@H]1CCCN1C(=O)c1cccs1)N1CCCCCCC1`, the “% Inhibition” value is given as -2% and the Z score was 0.16.

For the compound `Cc1n[nH]c(C)c1CCCN[C@@H](C)CN1CCCCCC1`, the “% Inhibition” value is recorded as -11% and the Z score is on record as 2.17.

With `CNC(=O)Cn1c(=O)n(Cc2ccco2)c2ccc(C(F)(F)F)cc21`, the “% Inhibition” value is -9% and the Z score amounted to 1.5.

Regarding `O=C(c1ccsc1)N1CC(n2ccnn2)C1`, the “% Inhibition” value is recorded as -11% and the Z score is given as 2.08.

Consider `Cc1nc(C(C)(C)NC(=O)[C@@H]2COCCO2)sc1C`, for which the “% Inhibition” value is on record as -9% and the Z score worked out at 0.97.

Turning to `CN(CCc1ccccc1F)C(=O)c1nc(=O)[nH][nH]1`, the “% Inhibition” value stood at 3% and the Z score is -0.45.

Regarding `CN1CCN(S(=O)(=O)N2CCN(C(=O)CCc3cccc(F)c3)CC2)CC1`, the “% Inhibition” value is -9% and the Z score was found to be 1.03.

Regarding `CCn1ccc(-c2c(-c3ccccc3)ncn2CCN(C)S(C)(=O)=O)n1`, the “% Inhibition” value was -6% and the Z score stood at 0.99.

For the compound `C=CCNC(=O)O[C@@H]1CC[C@]2(C)C(CC[C@@H](O)[C@H]2CC(=O)N2CCC[C@H]2CO)[C@]1(C)CO` (stereo partly specified), the “% Inhibition” value is reported as -1% and the Z score came to 0.15.

For the compound `COc1ccc(NC(=O)OCC(F)(F)C(F)F)cc1Cl`, the “% Inhibition” value is reported as -9% and the Z score is listed as 1.25.

Regarding `Cc1cccc(CN(Cc2ccccn2)c2ncnc3c2ncn3C)c1`, the “% Inhibition” value was -8% and the Z score was found to be 1.23.

As to `Cc1ccc2nc(-c3ccc(N(C)C)cc3)sc2c1`, the “% Inhibition” value is given as -6% and the Z score is 0.72.

`COc1ccc2cc([C@@H]3CN(Cc4nnc(C5CC5)o4)CCO3)ccc2c1`: the “% Inhibition” value is given as -10% and the Z score stood at 1.44.

Turning to `Cc1cc(C)cc(CN2CCCN(c3ccc(C)cc3NS(=O)(=O)c3ccc(Cl)cc3)C2=O)c1`, the “% Inhibition” value was -5% and the Z score is 0.69.

`CC(C)Oc1ccc(C(=O)NCc2ccc(-c3cccnc3)nc2)cc1`: the “% Inhibition” value came to 0% and the Z score is on record as 0.01.

On to `C[C@@H](CNC(=O)NC1CCN(Cc2ccccc2)CC1)N1CCc2ccccc21`, for which the “% Inhibition” value came out at 1% and the Z score was -0.12.

On to `O=C(c1cnc(O[C@H]2CCOC2)c(Cl)c1)N1CCN(C(=O)c2ccco2)CC1`, for which the “% Inhibition” value came out at 3% and the Z score is -0.52.
